The source of these data is PubChem BioAssay (NCI).

Where “and” joins values, the source holds several entries; their conditions need not be identical. Identical values can stand only once.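 How tested: cells in 96-well plates exposed to compound for 48 hours at five concentrations. GI50: concentration for 50% inhibition of growth. At the TGI there is no net growth.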 Where only a bound is given, the exact number is not on record here.

The subject of this test is NCI-H322M lung. Nature of the test: NCI anticancer screen, dose series, 48 h.
Consider `C=C1C(=O)O[C@H]2[C@H]1CC/C(COC(=O)CCSCCC(=O)OC/C1=C/CC[C@@]3(C)O[C@H]3[C@H]3OC(=O)C(=C)[C@@H]3CC1)=C\CC[C@@]1(C)O[C@@H]21`, for which the GI50 is 3.9 µM and the TGI was found to be 12.3 µM.
On to `CC(=O)OC(Cc1ccc2ccccc2n1)(C(F)(F)F)C(F)(F)F`, for which the TGI stood at 12 µM.
As for `CCCCCCNC(=O)Oc1ccc(/C(=C(/C)Cc2ccc(OC)cc2)c2ccc(OCCCN(C)C)cc2)cc1`, the GI50 is 14.2 µM and the TGI came to 27.9 µM.
For `CC(=O)N1N=C(c2ccc(Nc3ccnc4cc(Cl)ccc34)cc2)CC1c1ccc(Cl)cc1` (centres undefined), in that order: more than 100 µM and more than 100 µM.
`COC1CC(OC2C(C)OC(OC3C(C)OC(OC4C(O)CC(O[C@H]5CC[C@@]6(C)C(=CC[C@]7(O)[C@@H]6C[C@@H](OC(C)=O)[C@@]6(C)[C@]7(O)CC[C@@]6(O)C(C)=O)C5)OC4C)CC3OC)CC2OC)OC(C)C1O` (some centres undefined) showed a TGI of more than 12.5 µM.
Turning to `Oc1ccc(O)c(-c2cc(-c3ccc(Cl)cc3)nn2-c2ccccc2)c1`, the GI50 was 6.07 µM and the TGI is 21.7 µM.
Regarding `O=[N+]([O-])c1ccc(-c2noc(-c3ccc(Cl)cc3)c2C2=NCCN2)cc1`, the TGI is more than 100 µM.
Still for that read-out and setting: then `CCCCCCCCCCCCCCCCNCCCN(C)CCCN`, with 30.5 µM; and `Brc1ccc2c3c1[C@H]1O[C@H]1c1cccc(c1-3)[C@@H]1O[C@H]21`, with 30.1 µM; and `CC(=O)NC1C(OCc2ccccc2)OC(CO)C(O)C1OC(C)C(=O)N[C@@H](C)C(=O)N[C@H](CCC(=O)OCCNc1c2ccccc2nc2cccc([N+](=O)[O-])c12)C(N)=O` (some centres undefined), with 0.0127 µM.
`Cc1nnc2c3nnc(C)n3c3ccccc3n12`: the TGI is more than 100 µM.
Still for that read-out and setting: under `CCOC(=O)c1c(-c2ccc(Cl)cc2)c(C#N)c(=S)n(C2OC(COC(C)=O)C(OC(C)=O)C(OC(C)=O)C2OC(C)=O)c1-c1ccccc1` (centres undefined) stands more than 100 µM.
Take `COC1=C(C)C(=O)c2c(c(CCCl)c3n2CCC3O)C1=O` (centres undefined): the GI50 is 0.276 µM and the TGI is 4.7 µM.
As to `CN(C)c1nnnn1-c1c(N)n(C)c(=O)n(C)c1=O`, the TGI was more than 100 µM.
As for `CC1=C(/C=C/C(C)=C/C=C/C(C)=C/C=N/NC(=S)NC(=S)N/N=C/C=C(C)/C=C/C=C(C)/C=C/C2=C(C)CCCC2(C)C)C(C)(C)CCC1`, the GI50 is 6.5 µM and 5.83 µM; the TGI was 14.6 µM and 13.3 µM.
`CCCCC(C)C(OC(=O)CC(CC(=O)O)C(=O)O)C(CC(C)CC(O)CCCCC(O)CC(O)C(C)N)OC(=O)CC(CC(=O)O)C(=O)O` (centres undefined) gave a TGI of more than 100 µM.
`CCOC(=O)c1nc2ccccc2nc1Oc1ccc(C(=O)OC)cc1` registered a TGI of more than 100 µM.
Same read-out and setting: then `O=C1c2ccccc2C(=O)c2c(O)c(NCCCNCCO)cc(O)c21`, with 19.8 µM.
For `Cc1ccc(-c2c3c(nn2-c2ccc(S(N)(=O)=O)cc2)-c2ccccc2C3)cc1`, the GI50 was 17.8 µM and the TGI was 41.2 µM.
For `CCN1C(=O)CCCc2c1ccc(Nc1ncc(Cl)c(NC3[C@@H](C(N)=O)[C@@H]4C=C[C@H]3C4)n1)c2OC` (some centres undefined), in that order: 1.64 µM and 5.5 µM.
`CN(COC(=O)c1ccccc1)c1nc(N(C)COC(=O)c2ccccc2)nc(N(C)COC(=O)c2ccccc2)n1`: the TGI is more than 100 µM.
In the case of `COc1ccc2[nH]c3c(c2c1)CCN[C@]31CS[C@@H]2c3c(OC(C)=O)c(C)c4c(c3[C@H](COC1=O)N1[C@@H]2[C@H]2c3c(cc(C)c(OC)c3O)C[C@@H]([C@@H]1O)N2C)OCO4`, the TGI was 0.0591 µM.
Take `O=c1cc(NNc2cccc(F)c2)[nH]c(=O)[nH]1`: the TGI is more than 100 µM.
As to `N[C@@H]1C(=O)N2C(C(=O)OC(c3ccccc3)c3ccccc3)=C(CCl)CS[C@H]12`, the GI50 is more than 100 µM and the TGI is more than 100 µM.
Compound `CCCC(O)c1cn(C(NC(=O)c2ccccc2)P(=O)(OCC)OCC)nn1` (centres undefined) came in with a TGI of more than 100 µM.
Same read-out and setting: under `COc1cc2cc(C(=O)N3CC(CCl)c4c3cc(NC(=O)OCc3ccc([N+](=O)[O-])cc3)c3ccccc43)[nH]c2c(OC)c1OC` (centres undefined) stands more than 100 µM; under `O=c1oc2ccc([N+](=O)[O-])cc2c(Nc2ccc3c(c2)Sc2ccccc2O3)c1[N+](=O)[O-]`, 51.5 µM.
On the same count and under the same terms, then `COC(OC)C1OCC(n2cc(F)c(=O)[nH]c2=O)C1O` (centres undefined), with more than 100 µM; and `CCOC(=O)c1sc2nc(SC)nc3c2c1NCN3c1ccc(F)c(F)c1`, with more than 76.7 µM.
The compound `O=C(CC1(O)C(=O)Nc2ccc(Br)cc21)c1ccc(Cl)cc1Cl` (centres undefined) came in with a TGI of more than 100 µM.
The same measure, in the same setting: then `O=C(NCCO)c1ccc([N+](=O)[O-])cc1`, with more than 100 µM; and `Cn1c(=O)c(NC(=O)C(Cl)(Cl)Cl)nc2ccccc21`, with more than 100 µM.
`O=[N+]([O-])c1ccc(Cl)c(C2CC(c3cccc4ccccc34)=Nc3ccccc3S2)c1` (centres undefined) had a TGI of more than 100 µM.
As to `CCOC(=O)c1c(Br)c(-c2ccc(OC)cc2)c(Br)n1C`, the GI50 is more than 100 µM and the TGI was more than 100 µM.
In turn, `CCN(CC)c1ccc(N=Nc2ccc([N+](=O)[O-])cc2OC(=O)/C=C/c2ccccc2)c(OC(=O)/C=C/c2ccccc2)c1` yielded a TGI of 70.6 µM.
On the same count and under the same terms, then `CCCCCc1cc2cc3c(c(O)c2c(=O)[nH]1)C1(CCC3)C(O)=c2c(=O)c3c(=O)cc(OC)c(=O)c=3c(=O)c2=C1O` (centres undefined), with 5.57 µM; and `COc1cc(O)c2c(=O)c3c(C)cccc3n(C)c2c1`, with more than 10 µM.
The same measure, in the same setting: then `COc1cc(C2SC(C)C(=O)N2c2ccc(-c3csc(NS(=O)(=O)c4ccc(Cl)c(OC)c4)n3)cc2)ccc1O` (centres undefined), with more than 100 µM; and `C(=N\Nc1ccc(-c2nc3ccccc3[nH]2)cc1)/c1c(-c2ccc(Cc3ccccc3)cc2)[nH]c2ccccc12`, with more than 87.1 µM; and `O=C1C2=C(c3ccccc31)C(c1ccccc1)N1C(=O)CSC1=N2` (centres undefined), with more than 100 µM.
`O=[N+]([O-])c1ccc(C2CC(c3ccccc3Cl)=Nc3ccccc3S2=O)cc1` (centres undefined) displayed a TGI of 49.4 µM.
The same measure, in the same setting: then `COc1cc([C@@H]2c3cc4c(cc3[C@@H](Nc3ccccc3C(=O)c3ccccc3)[C@H]3COC(=O)[C@H]23)OCO4)cc(OC)c1OC`, with more than 100 µM; and `Cc1ccc2c(=O)c(C(=O)Nn3c(C)csc3=S)c[nH]c2n1`, with more than 100 µM.
Regarding `O=C(CN1CCN(c2cc3c(cc2F)c(=O)c(C(=O)O)cn3C2CC2)CC1)Nc1nc(-c2ccc(Cl)cc2)cs1`, the GI50 was 4 µM and the TGI was more than 100 µM.
In turn, `CN(C)C(=Nc1nc(=[N+](C)C)ss1)N(C)C` displayed a TGI of more than 100 µM.
Still for that read-out and setting: then `CSCCCS/C1=C/CCCCCCCCCC1`, with more than 100 µM.
With `COc1cccc(-c2nn(-c3ccccc3)cc2-c2ccnc(NCCNC(=O)Nc3cccc(C(F)(F)F)c3)c2)c1`, the GI50 is 1.79 µM and the TGI turned out to be 7.01 µM.
On to `O=C1C=C2SC3C[C@@]24CC1[N+]1=c2c4c(c(O)c4c2=C(C=N4)CC1)N3`, for which the TGI is 8.17 µM.
The same measure, in the same setting: then `O=C(c1ccccc1)n1cc(-c2ccccc2)c2c(=O)[nH]cnc21`, with more than 100 µM.
Same read-out and setting: then `O=[N+]([O-])c1ccccc1S(=O)(=O)c1ccccc1`, with more than 100 µM; and `Cc1nc2c(o1)C(=Nc1ccccc1)c1ccccc1C2=O`, with 28.6 µM.
The same measure, in the same setting: under `NNc1nncc2[nH]cnc12` stands more than 100 µM; under `COC(=O)CCc1ccc2c(c1)C(=O)CC2`, more than 100 µM; under `O=c1cc(-c2c[nH]c3ccccc23)[nH]c2cc3c(cc12)OCO3`, more than 100 µM.
With `Nc1c(O)cc(N=C2C(=O)C=CC=C2C(=O)O)c(O)c1C(=O)O`, the TGI is more than 100 µM.
On the same count and under the same terms, under `Cc1cn(CCCCCCC2=NCCCN2)c(=O)[nH]c1=O` stands more than 100 µM.
Still for that read-out and setting: under `CCOC(=O)c1cc(I)c(-c2cc(C)no2)n1C` stands more than 100 µM.
On the same count and under the same terms, then `Cc1ccc(NC(=O)C2C(=O)N(c3ccc(C)c(C)c3)C(=O)/C2=N\NC(N)=O)cc1C` (centres undefined), with more than 100 µM.
As for `S=c1nc(COc2ccc(Cl)cc2Cl)[nH][nH]1`, the TGI was more than 100 µM.
On the same count and under the same terms, then `COc1cccc(CSCC(=O)O)c1`, with more than 100 µM.
As for `COc1cc(NS(C)(=O)=O)ccc1Nc1c2ccccc2nc2ccccc12`, the GI50 is 11.1 µM and 6.68 µM and 6.5 µM.
`ON(Cc1ccccc1)C(=S)c1ccccc1` showed a TGI of more than 77.8 µM.
On to `Oc1ccc(-c2nc3ccc4[nH]ncc4c3c3c2CCCC3)c(F)c1`, for which the GI50 is 2.64 µM and the TGI was found to be 16.2 µM.
As for `CN(C)c1ccc(C=C2C(=O)N(c3ccccc3)N(c3ccccc3)C2=O)cc1`, the TGI was more than 100 µM.
Same read-out and setting: then `Cc1c(-c2ccccc2)nn2cc(-c3ccccc3)nnc12`, with 51.3 µM; and `CCOC(=O)C(CC(C)C)NC(=O)CSc1nnc(COc2ccc(Cl)cc2)n1-c1ccccc1` (centres undefined), with 32.8 µM.
The same measure, in the same setting: then `O=c1sc2c(s1)-c1sc(=O)sc1SS2`, with more than 100 µM; and `O=C(O)C1CC2(C1)CC(C(=O)O)C2` (centres undefined), with more than 100 µM.
Still for that read-out and setting: under `COC(=O)C1OC2(CCCC3CC32)O[C@H]1C(=O)OC` (some centres undefined) stands more than 100 µM; under `Cc1cccc(C(C)C)c1N1C(=O)C(=O)C(c2nc3ccccc3o2)C(=O)C1=O`, more than 100 µM.
In the case of `Cc1cn(C2C=CC(CO)O2)c(=O)[nH]c1=O` (centres undefined), the TGI was more than 1000 µM.
Turning to `COc1cc(-c2cc(-c3ccc(Nc4ccnc5cc(Cl)ccc45)cc3)nc(N3CCOCC3)n2)cc(OC)c1OC`, the GI50 was 2.05 µM and the TGI came out at 4.8 µM.
`CCOP(=O)(OCC)C(c1ccccc1)N(C(=O)NC(F)(F)F)c1cccc(F)c1` (centres undefined) showed a TGI of more than 100 µM.
Still for that read-out and setting: then `O=[N+]([O-])c1ccc(C(Nc2ccccc2)P(c2ccccc2)c2ccccc2)cc1` (centres undefined), with more than 100 µM.
Still for that read-out and setting: under `Fc1ccc(N=C/C=C/Nc2ccc(F)cc2)cc1` stands 25.9 µM.
With `Cc1cc(S(=O)(=O)/N=C/N(C)C)c(SC(=O)c2ccc(Cl)cc2)cc1Cl`, the GI50 was more than 100 µM and the TGI was more than 100 µM.
For `C=C1c2nc3ccccc3n2C=C(c2ccc(C)cc2)N1c1ccc(C)cc1`, the TGI was more than 100 µM.
Take `C[N+](C)(C)CC1CCC/C1=N/O` (centres undefined): the TGI was 3.5 µM.
`CCCC(C)n1c(C)nc2c1C(=O)c1ccccc1C2=O` (centres undefined) registered a TGI of more than 100 µM.
Same read-out and setting: then `CN=C(NC(=S)N(C)C)N(C)C`, with more than 100 µM; and `COC(=O)C1C=CCON2CCc3c(n(C)c4ccccc34)C12` (centres undefined), with more than 100 µM.
For the compound `FC(F)(F)c1ccc(-c2cnc(-n3cc(COCCN4CCCCC4)nn3)nc2NC2CCCCCC2)cc1`, the GI50 is 4.06 µM and the TGI came out at 7.84 µM.
Take `O=S(OC12CC3CC(CC(C3)C1)C2)c1cc(Cl)cc(Cl)c1OCc1ccccc1` (centres undefined): the TGI was more than 100 µM.
